Assay results as given in the supplement of paper PMC10126150.
Values marked as one replicate rest on one cluster of the flow cell; about a third of the high ones do not repeat.

Test system: ATP
Test: switch fluorescence ratio, 500 uM ATP over buffer (Cy3 cluster intensity, sum of 5 cycles each) (fold (ratio)); higher = stronger signal-on switching upon ATP binding; sequences stand for … in TCGTCGGCAGCGTCAGATGTGTATAAGAGACAGTTTTTTTTTTTTTTTTTTTTTTTTT…TC
Settings: aptamer strand: ATP DNA aptamer (quencher-CACCTGGGGGAGTATTGCGGAGGAAGG + anchor), 100 nM annealed; ATP concentration: 500 uM; one replicate
Outline: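 For every switch-domain sequence, the fluorescence ratio is the mean of per-cluster values, each being summed target-cycle Cy3 intensity over summed buffer-cycle Cy3 intensity. Clusters outside 100-1000 RFU were excluded. On a modified Illumina MiSeq flow-cell, the Cy3-labelled switching-strand clusters were annealed to 100 nM quencher-labelled ATP aptamer, imaged in selection buffer and then after 15 min with 500 uM ATP at 22 °C. Five such cycles were run, with NaOH stripping and re-annealing between them.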
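Further: ATP exposure 15 min at 22 °C before imaging.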

| Sequence | switch fluorescence ratio |
| --- | --- |
| GTACTTTATA | 1.01 |
| GTAGAAAGAG | 0.981 |
| GTAGAGGGCT | 1.02 |
| GTAGAGTTTG | 1.21 |
| GTAGATAGGT | 0.965 |
| GTAGATGCTG | 1.04 |
| GTAGATTGGC | 1.08 |
| GTAGCACAGT | 1.04 |
| GTAGCATGCG | 0.794 |
| GTAGCCGGTC | 1.06 |
| GTAGCGACGA | 1.16 |
| GTAGCGAGCA | 1.07 |
| GTAGCGCTAA | 0.962 |
| GTAGCTAGGA | 1.08 |
| GTAGCTGCAG | 0.959 |
| GTAGGAAGAT | 1.15 |
| GTAGGGGGAA | 1.02 |
| GTAGGGTTAT | 0.989 |
| GTAGGTAAAC | 1.01 |
| GTAGGTATGT | 0.962 |
| GTAGTAATAA | 3.04 |
| GTAGTATCAT | 0.995 |
| GTAGTATCGG | 1.02 |
| GTAGTCATTG | 1.04 |
| GTAGTCTTTT | 0.984 |
| GTAGTTATAA | 1 |

| Sequence | switch fluorescence ratio |
| --- | --- |
| GTAGTTATGT | 0.972 |
| GTAGTTTGA | 0.99 |
| GTATAACTAG | 1.03 |
| GTATAGGCTA | 0.984 |
| GTATATGTTA | 0.984 |
| GTATCATAGT | 0.987 |
| GTATCATCGC | 0.991 |
| GTATCGAATT | 0.976 |
| GTATCGCCCC | 1.05 |
| GTATCGGGGG | 1.01 |
| GTATCTACGT | 1.01 |
| GTATCTATCG | 0.992 |
| GTATCTATGG | 0.994 |
| GTATGCATGA | 1 |
| GTATGCTCTG | 1.03 |
| GTATGGACTA | 0.996 |
| GTATGGAGAT | 1.01 |
| GTATGGTTAC | 0.969 |
| GTATGTATG | 1.02 |
| GTATGTGTGT | 0.996 |
| GTATGTGTT | 1.06 |
| GTATGTTTCC | 1.11 |
| GTATGTTTCG | 1.04 |
| GTATTAGTGG | 0.98 |
| GTATTCCTTT | 0.998 |
| GTATTCTTTG | 1.02 |

| Sequence | switch fluorescence ratio |
| --- | --- |
| GTATTGACCG | 1.02 |
| GTATTGCTAG | 1.01 |
| GTATTGTTAG | 0.954 |
| GTCAACCGTG | 0.992 |
| GTCAACGAGC | 1.1 |
| GTCAATGT | 1.03 |
| GTCAATTATA | 0.968 |
| GTCAATTCAC | 1.12 |
| GTCACAAGGT | 1.03 |
| GTCACACACC | 1.3 |
| GTCACCAGGT | 2.2 |
| GTCACCTAGC | 1.06 |
| GTCACCTCGC | 1.12 |
| GTCACCTGCG | 1.05 |
| GTCACTTCGC | 1.05 |
| GTCAGCACGG | 1.03 |
| GTCAGCCCAT | 0.949 |
| GTCATCATAG | 1.02 |
| GTCATCTGAG | 1.02 |
| GTCATGGGTT | 1.02 |
| GTCATTAGGG | 0.957 |
| GTCATTGTCA | 1.02 |
| GTCCACCTTT | 1.03 |
| GTCCAGTCCG | 0.971 |
| GTCCCAAGA | 0.964 |
| GTCCCACGGT | 1.11 |

| Sequence | switch fluorescence ratio |
| --- | --- |
| GTCCCAGCTG | 1.06 |
| GTCCCGTG | 0.973 |
| GTCCGACGGC | 1.4 |
| GTCCGGATCT | 1.08 |
| GTCCGGGAGG | 0.974 |
| GTCCGTACAG | 1.04 |
| GTCCTACCTT | 1.11 |
| GTCCTAGTAA | 1.04 |
| GTCCTCGCAG | 2.64 |
| GTCCTGAACG | 1.01 |
| GTCCTGAGGT | 1.03 |
| GTCCTGTTAC | 1.03 |
| GTCCTTACG | 1.05 |
| GTCCTTAGGA | 0.95 |
| GTCCTTTTAT | 1.02 |
| GTCGAGATGG | 0.993 |
| GTCGATATGT | 0.984 |
| GTCGCCTCGG | 1.01 |
| GTCGCGCCCT | 1.04 |
| GTCGCTAACA | 0.968 |
| GTCGCTTTTC | 1.03 |
| GTCGGAAGTC | 1.06 |
| GTCGGACAAT | 1.01 |
| GTCGGATTTT | 1.01 |
| GTCGGCCGAG | 0.962 |
| GTCGGGAGAG | 1.01 |

| Sequence | switch fluorescence ratio |
| --- | --- |
| GTCGGTTCAC | 0.957 |
| GTCGTAATCC | 1.33 |
| GTCGTAATTT | 1 |
| GTCGTAGTCA | 0.984 |
| GTCGTAGTGG | 0.985 |
| GTCGTATGTC | 0.936 |
| GTCGTGCTTG | 0.993 |
| GTCGTGGTAG | 1.04 |
| GTCGTGTTTT | 1.01 |
| GTCGTTGTAG | 1.03 |
| GTCTAAGCC | 0.937 |
| GTCTAAGTAT | 1 |
| GTCTAATATA | 1.03 |
| GTCTAATGTT | 1.01 |
| GTCTAATTGT | 0.962 |
| GTCTCGAAAG | 1 |
| GTCTGAACAG | 0.986 |
| GTCTGACGGA | 1.01 |
| GTCTGCTGGG | 1.02 |
| GTCTGGAAAT | 0.99 |
| GTCTGGGGAC | 0.976 |
| GTCTTAATCG | 1.02 |
| GTCTTATACG | 0.993 |
| GTGAAAAGGA | 0.993 |
| GTGAAACTCT | 1.03 |
| GTGAAATGCG | 0.991 |

| Sequence | switch fluorescence ratio |
| --- | --- |
| GTGAAGCGAG | 1.03 |
| GTGAAGCGT | 0.976 |
| GTGAAGGGTC | 0.996 |
| GTGAATTCAG | 1.03 |
| GTGACACTGG | 1.02 |
| GTGACAGTCC | 1.04 |
| GTGACAGTGT | 0.989 |
| GTGACCAAAT | 1.03 |
| GTGACTCGGG | 1.02 |
| GTGACTTATA | 1.04 |
| GTGACTTGGA | 0.99 |
| GTGAGAG | 0.989 |
| GTGAGGATAG | 1 |
| GTGAGGATTC | 0.995 |
| GTGAGGGACA | 0.977 |
| GTGAGGGATC | 1.04 |
| GTGAGTACGT | 0.976 |
| GTGAGTCGAT | 0.979 |
| GTGATAAA | 0.982 |
| GTGATATACG | 1.08 |
| GTGATATTCT | 1.53 |
| GTGATCGCTC | 1.08 |
| GTGATGAGAG | 0.988 |
| GTGATTAACA | 1 |
| GTGATTAGTG | 1 |
| GTGATTCGTA | 0.989 |

| Sequence | switch fluorescence ratio |
| --- | --- |
| GTGCACATGG | 0.967 |
| GTGCACTACC | 1.02 |
| GTGCATGGGT | 1.02 |
| GTGCCAAGCG | 0.991 |
| GTGCCACTGG | 1 |
| GTGCCAGGGA | 1.05 |
| GTGCCTACTT | 1.01 |
| GTGCCTTGGG | 1.01 |
| GTGCGAAAAG | 0.978 |
| GTGCGCGCCC | 1.01 |
| GTGCGTGGTG | 1.01 |
| GTGCTAAG | 0.957 |
| GTGCTACCTG | 0.975 |
| GTGCTACGGG | 1.01 |
| GTGCTAGCC | 1.02 |
| GTGCTCATGA | 0.989 |
| GTGCTCCCCG | 1.3 |
| GTGCTCGGAT | 0.964 |
| GTGCTCTGAA | 1.01 |
| GTGCTGTTTT | 0.984 |
| GTGGAACAAA | 1.01 |
| GTGGAACGAA | 1.01 |
| GTGGAAGTAG | 1 |
| GTGGACATAA | 0.986 |
| GTGGACATGG | 0.949 |
| GTGGACATGT | 0.928 |

| Sequence | switch fluorescence ratio |
| --- | --- |
| GTGGAGCGCC | 0.994 |
| GTGGAGTAGC | 1.08 |
| GTGGATGTTG | 0.997 |
| GTGGCAGCCA | 1 |
| GTGGCCAGGT | 1.1 |
| GTGGCCCGGC | 0.978 |
| GTGGCCGACG | 1.02 |
| GTGGCCGGTA | 0.996 |
| GTGGCCTGGG | 1.03 |
| GTGGCTGGTC | 1.01 |
| GTGGGACGC | 1.05 |
| GTGGGAGAAA | 0.975 |
| GTGGGGACGC | 0.924 |
| GTGGGGGCCG | 1.09 |
| GTGGGGTATC | 0.956 |
| GTGGTATACG | 0.97 |
| GTGGTATCA | 1.01 |
| GTGGTCCCCG | 0.981 |
| GTGGTCTGTT | 0.991 |
